# Experimental data taken from the supplement of paper PMC11741623.
# The list shows a part of the results. Interaction screen of human proteins with wild-type SARS-CoV-2 proteins by split-DHFR complementation in yeast, 1 µg/mL methotrexate. Value = fitness of the pair (three or more lineages) minus that of the viral protein without a human partner, on a scale set by negative (0) and fused positive (1) controls, mean of up to three cultures; higher = more likely to interact. Active = false discovery rate below 0.05 (one-sided t-test) in at least one culture. Nearly all pairs are not hits, and differences among them are mostly noise (correlation between cultures about 0.3); most hits were seen in one culture only. Human sequences are the Swiss-Prot entries looked up by gene name; the clone may be another isoform. NSP2 values were corrected by the authors for a growth advantage. Listed are human proteins with a hit and a random twelfth of the others.
# B1: SYT2, Q8N9I0 (protein)
# chain: MRNIFKRNQEPIVAPATTTATMPIGPVDNSTESGGAGESQEDMFAKLKEKLFNEINKIPLPPWALIAIAVVAGLLLLTCCFCICKKCCCKKKKNKKEKGKGMKNAMNMKDMKGGQDDDDAETGLTEGEGEGEEEKEPENLGKLQFSLDYDFQANQLTVGVLQAAELPALDMGGTSDPYVKVFLLPDKKKKYETKVHRKTLNPAFNETFTFKVPYQELGGKTLVMAIYDFDRFSKHDIIGEVKVPMNTVDLGQPIEEWRDLQGGEKEEPEKLGDICTSLRYVPTAGKLTVCILEAKNLKKMDVGGLSDPYVKIHLMQNGKRLKKKKTTVKKKTLNPYFNESFSFEIPFEQIQKVQVVVTVLDYDKLGKNEAIGKIFVGSNATGTELRHWSDMLANPRRPIAQWHSLKPEEEVDALLGKNK
# B2: CDCA7L, Q96GN5 (protein)
# chain: MELATRYQIPKEVADIFNAPSDDEEFVGFRDDVPMETLSSEESCDSFDSLESGKQQDVRFHSKYFTEELRRIFIEDTDSETEDFAGFTQSDLNGKTNPEVMVVESDLSDDGKASLVSEEEEDEEEDKATPRRSRSRRSSIGLRVAFQFPTKKLANKPDKNSSSEQLFSSARLQNEKKTILERKKDCRQVIQREDSTSESEDDSRDESQESSDALLKRTMNIKENKAMLAQLLAELNSMPDFFPVRTPTSASRKKTVRRAFSEGQITRRMNPTRSARPPEKFALENFTVSAAKFAEEFYSFRRRKTIGGKCREYRRRHRISSFRPVEDITEEDLENVAITVRDKIYDKVLGNTCHQCRQKTIDTKTVCRNQGCCGVRGQFCGPCLRNRYGEDVRSALLDPDWVCPPCRGICNCSYCRKRDGRCATGILIHLAKFYGYDNVKEYLESLQKELVEDN
# B3: HESX1, Q9UBX0 (protein)
# chain: MSPSLQEGAQLGENKPSTCSFSIERILGLDQKKDCVPLMKPHRPWADTCSSSGKDGNLCLHVPNPPSGISFPSVVDHPMPEERASKYENYFSASERLSLKRELSWYRGRRPRTAFTQNQIEVLENVFRVNCYPGIDIREDLAQKLNLEEDRIQIWFQNRRAKLKRSHRESQFLMAKKNFNTNLLE
# B4: C2orf48, Q96LS8 (protein)
# chain: MESRPSGRQHASEGDGDQSPTQCAGMRSSGRSDQPYVLKGNPLLLRVRCYSGCASGSGRQLQLSVFQDLNQFSHCRVWRSPALIVKGEPPWCSQQDTQSPFQTGTPLERPCFRMKLSGWELTKNAQRALGSKLQHILSLDSTQACGAGGPTILRPPRAP
# Target: SARS-CoV-2 E
# Test: yeast fitness gain over the viral ORF with no human partner (scaled fitness); higher = more likely to interact
# Experimental: (§1)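 Split mouse DHFR complementation in pooled diploid yeast: human ORFeome clones carry one fragment and viral ORFs the other; barcoded lineages compete in 1 µg/mL methotrexate and fitness is read by barcode sequencing in up to three cultures.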
row,Binder,yeast fitness gain
1,B1,inactive: 0.0818
2,B2,inactive: 0.00307
3,B3,inactive: 0.00145
4,B4,inactive: -0.00998

# Target: SARS-CoV-2 M
# Test: as above
# Experimental: as §1
row,Binder,yeast fitness gain
1,B1,inactive: 0.0681
2,B2,inactive: 0.0876
3,B3,inactive: 0.0343

# Target: SARS-CoV-2 N
# Test: as above
# Experimental: as §1
row,Binder,yeast fitness gain
1,B1,inactive: -0.00566
2,B3,inactive: -0.00572

# Target: SARS-CoV-2 NSP1
# Test: as above
# Experimental: as §1
row,Binder,yeast fitness gain
1,B1,inactive: 0.0221
2,B2,inactive: -0.0161
3,B3,inactive: 0.0548

# Target: SARS-CoV-2 NSP10
# Test: as above
# Experimental: as §1
row,Binder,yeast fitness gain
1,B1,inactive: 0.0697
2,B2,inactive: -0.0261
3,B3,inactive: 0.0344
4,B4,inactive: -0.0673

# Target: SARS-CoV-2 NSP12
# Test: as above
# Experimental: as §1
row,Binder,yeast fitness gain
1,B1,inactive: 0.0455
2,B2,inactive: 0.00417
3,B3,inactive: 0.0474
4,B4,inactive: -0.142

# Target: SARS-CoV-2 NSP13
# Test: as above
# Experimental: as §1
row,Binder,yeast fitness gain
1,B1,inactive: 0.0332
2,B2,inactive: -0.342
3,B3,inactive: 0.0376
4,B4,inactive: -0.093

# Target: SARS-CoV-2 NSP14
# Test: as above
# Experimental: as §1
row,Binder,yeast fitness gain
1,B1,inactive: -0.0523
2,B3,inactive: 0.0245

# Target: SARS-CoV-2 NSP15
# Test: as above
# Experimental: as §1
row,Binder,yeast fitness gain
1,B1,inactive: -0.115
2,B3,inactive: -0.0155
3,B4,inactive: -0.0523

# Target: SARS-CoV-2 NSP16
# Test: as above
# Experimental: as §1
row,Binder,yeast fitness gain
1,B1,inactive: -0.00194
2,B3,inactive: 0.0355

# Target: SARS-CoV-2 NSP2
# Test: as above
# Experimental: as §1
row,Binder,yeast fitness gain
1,B1,inactive: 0.0181
2,B2,inactive: -0.335
3,B3,inactive: -0.119
4,B4,inactive: -0.126

# Target: SARS-CoV-2 NSP4
# Test: as above
# Experimental: as §1
row,Binder,yeast fitness gain
1,B1,active: 0.551
2,B3,inactive: 0.149

# Target: SARS-CoV-2 NSP5
# Test: as above
# Experimental: as §1
row,Binder,yeast fitness gain
1,B1,inactive: 0.0412
2,B2,inactive: -0.213
3,B3,inactive: 0.00803
4,B4,inactive: -0.0732

# Target: SARS-CoV-2 NSP6
# Test: as above
# Experimental: as §1
row,Binder,yeast fitness gain
1,B1,inactive: 0.0674
2,B2,inactive: -0.0182
3,B3,inactive: 0.0232
4,B4,inactive: 0.0334

# Target: SARS-CoV-2 NSP7
# Test: as above
# Experimental: as §1
row,Binder,yeast fitness gain
1,B1,inactive: 0.0711
2,B3,inactive: 0.0279

# Target: SARS-CoV-2 NSP8
# Test: as above
# Experimental: as §1
row,Binder,yeast fitness gain
1,B1,inactive: 0.0319
2,B2,inactive: 0.0387
3,B3,inactive: -0.00326
4,B4,inactive: -0.104

# Target: SARS-CoV-2 NSP9
# Test: as above
# Experimental: as §1
row,Binder,yeast fitness gain
1,B1,inactive: -0.00124
2,B2,inactive: -0.0365
3,B3,inactive: 0.0395

# Target: SARS-CoV-2 ORF10
# Test: as above
# Experimental: as §1
row,Binder,yeast fitness gain
1,B1,inactive: 0.0294
2,B2,inactive: 0.0494
3,B3,inactive: 0.0191
4,B4,inactive: -0.0194

# Target: SARS-CoV-2 ORF3A
# Test: as above
# Experimental: as §1
row,Binder,yeast fitness gain
1,B1,inactive: -0.0395
2,B3,inactive: 0.00277

# Target: SARS-CoV-2 ORF3B
# Test: as above
# Experimental: as §1
row,Binder,yeast fitness gain
1,B1,inactive: 0.058
2,B2,inactive: -0.00485
3,B3,inactive: -0.00969
4,B4,inactive: 0.0289

# Target: SARS-CoV-2 ORF6
# Test: as above
# Experimental: as §1
row,Binder,yeast fitness gain
1,B1,inactive: 0.0455
2,B2,inactive: -0.0527
3,B3,inactive: -0.0399
4,B4,inactive: -0.067

# Target: SARS-CoV-2 ORF7A
# Test: as above
# Experimental: as §1
row,Binder,yeast fitness gain
1,B1,inactive: 0.379
2,B2,inactive: 0.0442
3,B3,inactive: 0.0291

# Target: SARS-CoV-2 ORF7B
# Test: as above
# Experimental: as §1
row,Binder,yeast fitness gain
1,B1,inactive: 0.235
2,B2,inactive: 0.12
3,B3,inactive: 0.0107
4,B4,inactive: -0.0245

# Target: SARS-CoV-2 ORF8
# Test: as above
# Experimental: as §1
row,Binder,yeast fitness gain
1,B1,inactive: -0.0226
2,B2,inactive: 0.00403
3,B3,inactive: 0.00733
4,B4,inactive: 0.0276

# Target: SARS-CoV-2 ORF9B
# Test: as above
# Experimental: as §1
row,Binder,yeast fitness gain
1,B1,inactive: 0.003
2,B2,inactive: 0.0263
3,B3,inactive: 0.0245
4,B4,inactive: -0.0939

# Target: SARS-CoV-2 ORF9Bwu (the 73-codon ORF)
# Test: as above
# Experimental: as §1
row,Binder,yeast fitness gain
1,B1,inactive: -0.223
2,B3,inactive: 0.0244
3,B4,inactive: 0.0328

# Target: SARS-CoV-2 S
# Test: as above
# Experimental: as §1
row,Binder,yeast fitness gain
1,B1,inactive: 0.0103
2,B2,inactive: 0.0975
3,B3,inactive: 0.0452
4,B4,inactive: -0.0646
